Common to all, as to experiment: pull-down of labelled ligand with receptor-Fc and protein A sepharose, SDS-PAGE
In assay [1] the target is T1, VEGF-C 109 (minimal VEGF-C fragment with 109 residues).
T1 construct: Not naturally occurring minimal fragment
T1 chain: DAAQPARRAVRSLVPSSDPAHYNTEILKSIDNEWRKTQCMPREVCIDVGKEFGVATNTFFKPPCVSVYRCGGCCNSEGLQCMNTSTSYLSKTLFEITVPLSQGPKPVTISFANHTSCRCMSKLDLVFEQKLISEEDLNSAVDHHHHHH

For assay [2], the target named is T2, VEGF-A 109 (minimal VEGF-A fragment with 109 residues).
T2 construct: Not naturally occurring minimal fragment
T2 chain: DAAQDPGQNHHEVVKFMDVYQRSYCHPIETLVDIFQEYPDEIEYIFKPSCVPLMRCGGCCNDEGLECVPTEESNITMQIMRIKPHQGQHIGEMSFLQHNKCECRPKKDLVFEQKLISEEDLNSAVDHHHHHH

Assay [3] addresses T1, VEGF-C 109 (minimal VEGF-C fragment …).

Like-named read-outs stand apart in the source and are kept apart here.

This note sets out measurements from US20240368248A1 (VEGENICS, published 2024).

B1: R-2 L with CD33 Signal Peptide (VEGFR-2 residues 220-326, Fc fusion construct) (Fc fusion)
chain: DKLASYRIYDVVLSPSHGIELSVGEKLVLNCTARTELNVGIDFNWEYPSSKHQHKKLVNRDLKTQSGSEMKKFLSTLTIDGVTRSDQGLYTCAASSGLMTKKNSTFVRVHEDPIEGRGGGGGD[human IgG1 Fc with changes left out]
notes: CD33 signal peptide
As for B1, the binding result in assay [1] and in assay [2] was “no binding” throughout.

B2: R-3 J (VEGFR-3 residues 1-39, 132-247, Fc fusion construct) (Fc fusion)
chain: YSMTPPTLNITEESHVRDFEQPFINKPDTLLVNRKDAMWVPCLVSIPGLNVTLRSQSSVLWPDGQEVVWDDRRGMLVSTPLLHDALYLQCETTWGDQDFLSNPFLVHITGNELYDIQLLPRKSLELLVGEKDPIEGRGGGGGD[human IgG1 Fc with changes left out]
notes: Ig domain 1 deleted; only domain 2 of VEGFR-3
In the case of B2, the binding result in assay [3] was “no binding”.

B3: R-2 B with CD33 Signal Peptide (VEGFR-2 residues 24-220, Fc fusion construct) (Fc fusion)
chain: DKLASGTLEDGRGSLPSVSLDLPRLSIQKDILTIKANTTLQITCRGQRDLDWLWPNNQSGSEQRVEVTECSDGLFCKTLTIPKVIGNDTGAYKCFYRETDLASVIYVYVQDYRSPFIASVSDQHGVVYITENKNKTVVIPCLGSISNLNVSLCARYPEKRFVPDGNRISWDSKKGFTIPSYMISYAGMVFCEAKINDESYQSIMYIVVVVGDPIEGRGGGGGD[human IgG1 Fc with changes left out]
notes: CD33 signal peptide
For the molecule B3, the binding result in assay [1] and in assay [2] was “no binding” throughout.

B4: R-2 E with CD33 Signal Peptide (VEGFR-2 residues 24-241, Fc fusion construct) (Fc fusion)
chain: DKLASGTLEDGRGSLPSVSLDLPRLSIQKDILTIKANTTLQITCRGQRDLDWLWPNNQSGSEQRVEVTECSDGLFCKTLTIPKVIGNDTGAYKCFYRETDLASVIYVYVQDYRSPFIASVSDQHGVVYITENKNKTVVIPCLGSISNLNVSLCARYPEKRFVPDGNRISWDSKKGFTIPSYMISYAGMVFCEAKINDESYQSIMYIVVVVGYRIYDVVLSPSHGIELSVGEKDPIEGRGGGGGD[human IgG1 Fc with changes left out]
notes: CD33 signal peptide
As to B4, the binding result in assay [1] and in assay [2] was “no binding” in each case.

B5: R-2 I with CD33 Signal Peptide (VEGFR-2 residues 118-226, Fc fusion construct) (Fc fusion)
chain: DKLASVQDYRSPFIASVSDQHGVVYITENKNKTVVIPCLGSISNLNVSLCARYPEKRFVPDGNRISWDSKKGFTIPSYMISYAGMVFCEAKINDESYQSIMYIVVVVGYRIYDVDPIEGRGGGGGD[human IgG1 Fc with changes left out]
notes: CD33 signal peptide
Consider B5, for which the binding result in assay [2] is recorded as “no binding”.

B6: R-3 K (VEGFR-3 residues 1-39, 132-229, Fc fusion construct) (Fc fusion)
chain: YSMTPPTLNITEESHVRDFEQPFINKPDTLLVNRKDAMWVPCLVSIPGLNVTLRSQSSVLWPDGQEVVWDDRRGMLVSTPLLHDALYLQCETTWGDQDFLSNPFLVHITGNELADPIEGRGGGGGD[human IgG1 Fc with changes left out]
notes: Ig domain 1 deleted
For B6, the binding result in assay [3] is reported as “no binding”.

B7: R-2 H with CD33 Signal Peptide (VEGFR-2 residues 118-220, Fc fusion construct) (Fc fusion)
chain: DKLASVQDYRSPFIASVSDQHGVVYITENKNKTVVIPCLGSISNLNVSLCARYPEKRFVPDGNRISWDSKKGFTIPSYMISYAGMVFCEAKINDESYQSIMYIVVVVGDPIEGRGGGGGD[human IgG1 Fc with changes left out]
notes: CD33 signal peptide; also called R-2 H fragment
As for B7, the binding result in assay [2] is “no binding”.

B8: R-2 C with CD33 Signal Peptide (VEGFR-2 residues 24-226, Fc fusion construct) (Fc fusion)
chain: DKLASGTLEDGRGSLPSVSLDLPRLSIQKDILTIKANTTLQITCRGQRDLDWLWPNNQSGSEQRVEVTECSDGLFCKTLTIPKVIGNDTGAYKCFYRETDLASVIYVYVQDYRSPFIASVSDQHGVVYITENKNKTVVIPCLGSISNLNVSLCARYPEKRFVPDGNRISWDSKKGFTIPSYMISYAGMVFCEAKINDESYQSIMYIVVVVGYRIYDVDPIEGRGGGGGD[human IgG1 Fc with changes left out]
notes: CD33 signal peptide
Consider B8, for which the binding result in assay [1] and in assay [2] was “no binding” each time.

B9: R-3 H (VEGFR-3 residues 1-134, Fc fusion construct) (Fc fusion)
chain: YSMTPPTLNITEESHVIDTGDSLSISCRGQHPLEWAWPGAQEAPATGDKDSEDTGVVRDCEGTDARPYCKVLLLHEVHANDTGSYVCYYKYIKARIEGTTAASSYVFVRDPIEGRGGGGGD[human IgG1 Fc with changes left out]
B9: the binding result in assay [3] is “no binding”.

B10: R-2 J with CD33 Signal Peptide (VEGFR-2 residues 118-232, Fc fusion construct) (Fc fusion)
chain: DKLASVQDYRSPFIASVSDQHGVVYITENKNKTVVIPCLGSISNLNVSLCARYPEKRFVPDGNRISWDSKKGFTIPSYMISYAGMVFCEAKINDESYQSIMYIVVVVGYRIYDVVLSPSHDPIEGRGGGGGD[human IgG1 Fc with changes left out]
notes: CD33 signal peptide
For the molecule B10, in assay [2], the binding result was “no binding”.

B11: R-2 F with CD33 Signal Peptide (VEGFR-2 residues 24-122, Fc fusion construct) (Fc fusion)
chain: DKLASGTLEDGRGSLPSVSLDLPRLSIQKDILTIKANTTLQITCRGQRDLDWLWPNNQSGSEQRVEVTECSDGLFCKTLTIPKVIGNDTGAYKCFYRETDLASVIYVYVQDPIEGRGGGGGD[human IgG1 Fc with changes left out]
notes: CD33 signal peptide
In the case of B11, the binding result in assay [1] and in assay [2] was “no binding” each time.

B12: R-2 K with CD33 Signal Peptide (VEGFR-2 residues 118-241, Fc fusion construct) (Fc fusion)
chain: DKLASVQDYRSPFIASVSDQHGVVYITENKNKTVVIPCLGSISNLNVSLCARYPEKRFVPDGNRISWDSKKGFTIPSYMISYAGMVFCEAKINDESYQSIMYIVVVVGYRIYDVVLSPSHGIELSVGEKDPIEGRGGGGGD[human IgG1 Fc with changes left out]
notes: CD33 signal peptide
With B12, the binding result in assay [1] and in assay [2] was “no binding” throughout.

B13: R-2 D with CD33 Signal Peptide (VEGFR-2 residues 24-232, Fc fusion construct) (Fc fusion)
chain: DKLASGTLEDGRGSLPSVSLDLPRLSIQKDILTIKANTTLQITCRGQRDLDWLWPNNQSGSEQRVEVTECSDGLFCKTLTIPKVIGNDTGAYKCFYRETDLASVIYVYVQDYRSPFIASVSDQHGVVYITENKNKTVVIPCLGSISNLNVSLCARYPEKRFVPDGNRISWDSKKGFTIPSYMISYAGMVFCEAKINDESYQSIMYIVVVVGYRIYDVVLSPSHDPIEGRGGGGGD[human IgG1 Fc with changes left out]
notes: CD33 signal peptide
For B13, the binding result in assay [1] and in assay [2] was “no binding” in each case.

B14: R-3 I (VEGFR-3 residues 1-39, 132-329, Fc fusion construct) (Fc fusion)
chain: YSMTPPTLNITEESHVRDFEQPFINKPDTLLVNRKDAMWVPCLVSIPGLNVTLRSQSSVLWPDGQEVVWDDRRGMLVSTPLLHDALYLQCETTWGDQDFLSNPFLVHITGNELYDIQLLPRKSLELLVGEKLVLNCTVWAEFNSGVTFDWDYPGKQAERGKWVPERRSQQTHTELSSILTIHNVSQHDLGSYVCKANNGIQRFRESTEVIVHEDPIEGRGGGGGD[human IgG1 Fc with changes left out]
notes: Ig domain 1 deleted; domains 2 and 3 of VEGFR-3
Regarding B14, in assay [3], the binding result is recorded as “no binding”.
